Measurements as given in publication PMC6919601, “Identification of Plasmodium dipeptidyl aminopeptidase allosteric inhibitors by high throughput screening” (PLoS ONE, 2019).
Screen size: about 110,000 compounds; about 230 (0.21%) showed an effect of 50% or more. This is one part of the list.

target: DPAP1 (Plasmodium falciparum, UniProt Q8IIJ9); assay: primary screen, percent inhibition; read by cleavage of a fluorogenic dipeptide substrate; higher = more effect of the substance; set-up: species or system P. falciparum D10 trophozoite lysates; single well
Sequence (Q8IIJ9 whole entry, looked up): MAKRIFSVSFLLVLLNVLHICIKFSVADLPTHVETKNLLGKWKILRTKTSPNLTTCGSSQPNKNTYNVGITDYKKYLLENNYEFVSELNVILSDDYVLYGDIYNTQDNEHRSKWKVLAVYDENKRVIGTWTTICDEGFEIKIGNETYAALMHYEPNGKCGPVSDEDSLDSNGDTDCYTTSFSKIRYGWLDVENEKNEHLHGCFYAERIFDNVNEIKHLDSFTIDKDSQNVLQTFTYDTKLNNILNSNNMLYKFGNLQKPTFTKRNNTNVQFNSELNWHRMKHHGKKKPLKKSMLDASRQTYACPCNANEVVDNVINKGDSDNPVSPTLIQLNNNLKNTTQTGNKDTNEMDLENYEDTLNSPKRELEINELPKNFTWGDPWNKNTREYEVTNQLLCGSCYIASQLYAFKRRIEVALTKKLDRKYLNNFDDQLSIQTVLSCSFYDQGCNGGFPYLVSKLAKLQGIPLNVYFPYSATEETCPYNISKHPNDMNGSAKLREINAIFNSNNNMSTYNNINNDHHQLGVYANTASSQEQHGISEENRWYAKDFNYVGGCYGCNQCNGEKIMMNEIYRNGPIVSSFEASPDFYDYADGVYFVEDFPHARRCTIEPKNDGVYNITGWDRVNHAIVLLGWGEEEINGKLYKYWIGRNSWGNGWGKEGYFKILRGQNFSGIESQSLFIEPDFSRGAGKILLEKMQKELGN
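Also: 30 min substrate incubation versus DMSO and 10 µM JCP410 controls.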

Row | SMILES | % Inhibition @ 10 uM
1 | Cc1ccc(S(=O)(=O)N(C)c2ccccc2C(=O)NC2CCCC2)cc1 | -4.14%
2 | O=C(Nc1ccc(Cl)cn1)c1ccc2c3c(cccc13)CC2 | -3.19%
3 | COc1ccc(OC)c(CC2(NC(=O)c3ccccc3)N=C3C=C(C)C=CN3C2=O)c1 (stereo not shown) | -6.01%
4 | COc1ccc(C(=O)Cn2c3ccccc3n3ncnc23)cc1 | 3.06%
5 | Cc1ccc2cc3cc(C(=O)NCCCN4CCN(Cc5ccccc5)CC4)oc3nc2c1 | -1.54%
6 | COc1ccc(C(=O)Nc2cc(C)on2)c(OC)c1 | 3.01%
7 | COc1ccc(CC/N=C2/C=C(O)CC(C)(C)C2)cc1 | -2.68%
8 | COc1ccccc1NS(=O)(=O)c1c(C)cc(C)cc1C | -2.6%
9 | CCOC(=O)N1CCN(C(=O)c2cn(C)c(=O)c3cc(OC)c(OC)cc23)CC1 | -4.86%
10 | Cc1cccc(-n2c(C)cc(/C=C3\C(=N)N4N=C(S(C)(=O)=O)SC4=NC3=O)c2C)c1C | 8.11%
11 | CN(C1CCCCC1)S(=O)(=O)c1ccc(F)cc1 | 3.48%
12 | CC1CCC(C(C)C)C(OCC(O)CN2CCCC(C)C2)C1 (stereo not shown) | -8.19%
13 | C/C=C/C1(NCCc2ccccc2)CCCCC1 | 2.57%
14 | COc1cccc(-c2nnc(SCC(=O)N3CCCC3)o2)c1 | 1.3%
15 | CCOc1ccc2nc(NC(=O)Nc3cccs3)sc2c1 | -1.11%
16 | CC1=C(C(=O)OCC2CCCCC2)C(c2ccc(F)cc2)NC(=O)N1 (stereo not shown) | 3.61%
17 | O=C(Cn1ncn2c(cc3sccc32)c1=O)N1CCCCCC1 | -9.07%
18 | CC(C)OCCCn1c(=O)c2ccccc2n2c(CCC(=O)NCc3cccnc3)nnc12 | -1.44%
19 | Cc1nnc(N2CCC(C(=O)N3CCN(c4ccccn4)CC3)CC2)c2nn(-c3ccccc3)c(C)c12 | 2.92%
20 | O=C(Nc1nc2nc3c(c(O)n2n1)CCC3)c1ccc(Cl)cc1 | 0.401%
21 | Cc1ccc(OCCn2c(N)nc3ccccc32)cc1 | -0.996%
22 | O=C1c2ccccc2C(=O)N1CN1CCN(Cc2ccc3c(c2)OCO3)CC1 | 1.64%

Row | SMILES | % Inhibition @ 10 uM
23 | CNC(=S)NCc1ccc2[nH]c3c(c2c1)CCCC3 | -0.138%
24 | N#Cc1c(-c2cccc(Br)c2)cc(C2CC2)nc1N | 0.345%
25 | CCCN(C)C(=O)c1c(O)nc2ccccc2c1O | 1.96%
26 | CC(=O)c1ccc(NC(=O)C2Cc3ccccc3CN2S(=O)(=O)c2cccs2)cc1 (stereo not shown) | -0.185%
27 | CCN(CC)C(=O)C1CCCN(Cc2ccccc2C)C1 (stereo not shown) | -0.0404%
28 | CCCCCCCCP(=O)(O)c1ccccc1 | 5.09%
29 | COc1ccc(-c2nnc3sc(NC(C)=O)nn23)cc1OC | 0.00665%
30 | CCc1nn(CC(=O)NC2CCN(Cc3ccccc3)CC2)c(=O)c2cc3sccc3n12 | 3.4%
31 | O=C(O)c1ccc(O)nc1 | 0.883%
32 | Clc1cccc(CN2CCN(c3ccccc3)CC2)c1Cl | -3.65%
33 | Cc1ccc2nc(-c3ccc(NC(=O)c4ccoc4C)cc3)sc2c1 | -3.24%
34 | C=CCNC(=O)c1c(NC(=O)c2ccco2)sc2c1CCCC2 | 0.528%
35 | COc1ccc2cc(C3C4=C(CC(C)(C)CC4=O)OC4=C3C(=O)CC(C)(C)C4)c(O)nc2c1 | 2.26%
36 | CCOc1ccc(-c2cc(NC(=O)Cc3noc4ccc(C)cc34)on2)cc1 | -2.27%
37 | OCC1CCCN1Cc1c(F)cccc1F (stereo not shown) | -6%
38 | CC1=NN(C(=O)c2ccc(COc3ccc(Cl)cc3)o2)C(O)(C(F)(F)F)C1 (stereo not shown) | 4.03%
39 | CCOC(=O)N1CCN(C(=O)c2cnn(-c3ccccc3)c2NC(=O)c2ccccc2F)CC1 | -1.24%
40 | COCCCN1C(=O)/C(=C\c2ccc(OC)cc2OC)C(C(=O)OC)=C1C | -5.26%
41 | Cc1[nH]c2c(Cl)ccc(Cl)c2c1CCNC(=O)Cn1nc(C)c2ccccc2c1=O | 2.18%
42 | COc1cc(OC)cc(-n2nnc(-c3nsc(NC(=O)c4cccs4)n3)c2C)c1 | -0.656%
43 | Cc1cc(Br)ccc1OCC(=O)Nc1cccc(C#N)c1 | 0.161%
44 | Cc1ccc(NC(=O)c2cnc(Nc3nc4ccccc4o3)nc2C)cc1 | 4.31%

Row | SMILES | % Inhibition @ 10 uM
45 | O=C(CC1(O)C(=O)Nc2ccc(Br)cc21)c1ccc2c(c1)CCCC2 (stereo not shown) | -7.62%
46 | CCOCCCNC(=O)c1ccc(NC(C)=O)cc1 | -4.14%
47 | N#CC1=C(N)Oc2[nH]nc(-c3ccc(F)cc3)c2C1c1cccnc1 (stereo not shown) | -3.77%
48 | NC(=O)CSc1nc(-c2ccccc2)nc2c1Cc1ccccc1O2 | -2.92%
49 | COC(=O)c1ccc(NC(=O)COc2ccccc2)cc1 | 3.01%
50 | Cc1noc(/C=C/c2cccs2)c1S(=O)(=O)N1CCC(C(=O)Nc2ccncc2)CC1 | -1.28%
51 | CCOc1ccccc1CNCc1c(C(=O)O)n(Cc2ccccc2C)c2ccccc12 | 0.49%
52 | CCOc1ccc(N2C(=O)CC(N3CCCC4CCCCC43)C2=O)cc1 (stereo not shown) | 4.83%
53 | Cc1ccccc1C(=O)n1nnc2ccccc21 | 7.49%
54 | Cc1ccc(NC(=O)Cn2cnc3c(=O)n(C)c(=O)n(C)c32)cc1Cl | -1.61%
55 | CCn1c(=O)c2sccc2n2c(CCCC(=O)N3CCN(c4ccccn4)CC3)nnc12 | -0.519%
56 | Cc1ccc(C(=O)N/C(=C\c2cccs2)C(=O)NCc2ccccc2F)cc1C | 2.46%
57 | Cc1ccc(CNC(=O)Cn2c(=O)c3sccc3n(Cc3ccccc3F)c2=O)cc1 | 2.4%
58 | CCn1c(SCC(=O)NC2CCCC2)nc2c(c1=O)SCC2 | 0.8%
59 | COc1ccc(CCNS(=O)(=O)c2c(C)cc(C)cc2C)cc1OC | 0.528%
60 | Fc1ccc(CN2CCN(c3ncnc4onc(-c5ccc(Cl)cc5)c34)CC2)cc1 | 4.28%
61 | CCOCCCNC(=O)CCCn1nc(C)n2ccnc2c1=O | -3.34%
62 | COCCNC(=O)c1cc2c(s1)-c1ccccc1S(=O)(=O)C2 | -3.96%
63 | CCO/C(O)=C1/C(C)=Nc2nc(SCc3ccccc3F)nn2C1c1ccc(OC)cc1 (stereo not shown) | -6.08%
64 | CN(Cc1ccccc1)C(=O)COc1ccccc1 | 7.09%
